This note sets out measurements from the supplement of paper PMC7125110.

± gives the standard error. Variants at the background level are over-represented here.

Sequences and labels used below:
B1: glmS ribozyme (parent)
chain: AUAAAAGCGCCAGAACUACAGAAAUGUAGUUGACGAGGAGGAGGUUUAUCGAAUUUUCGGCGGAUGCCUCCAAA

What all share (settings): with glucosamine-6-phosphate
The variants in data set [1] derive from B1. Description: self-cleavage kobs at 640 uM GlcN6P; higher = faster cleavage; RNA array. The method, boiled down: (§1)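 Barcoded ribozyme variants, transcribed in situ by E. coli RNA polymerase on sequenced MiSeq chips, were followed via a hybridised Cy3 probe at 37 °C. Glucosamine-6-phosphate ranged from 40 μM to 10 mM in HEPES/KCl/Mg(OAc)2 buffer. kobs came from decay fits to per-tile medians, and kcat and KM from weighted Michaelis–Menten fits.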

In data set [2] the parent is B1. Description: self-cleavage kobs at 160 uM GlcN6P; higher = faster cleavage; RNA array. The method, boiled down:
as §1

Data set [3] covers variants of B1. Description: self-cleavage kobs at 2500 uM GlcN6P; higher = faster cleavage; RNA array. The method, boiled down:
as §1

Data set [4] covers variants of B1. Description: self-cleavage kobs at 10000 uM GlcN6P; higher = faster cleavage; RNA array. The method, boiled down:
as §1

Consider C11G G35A C58G, for which, in the data set with glucosamine-6-phosphate [1], the “self-cleavage kobs at 640 uM GlcN6P” value was below 1e-05 s⁻¹. The “self-cleavage kobs at 160 uM GlcN6P” value with glucosamine-6-phosphate [2] is below 1e-05 s⁻¹. For the same variant, the “self-cleavage kobs at 2500 uM GlcN6P” value with glucosamine-6-phosphate [3] is below 1e-05 s⁻¹.
Consider G13A A52C C58G U69G, for which the “self-cleavage kobs at 640 uM GlcN6P” value in the data set with glucosamine-6-phosphate [1] is 4.44e-05 ± 2e-05 s⁻¹.
The same measure, in the same setting: for C11A A14C U55C U69G the value was below 1e-05 s⁻¹.
On to C10U A33U G43U A53C U57G, for which the “self-cleavage kobs at 640 uM GlcN6P” value in the data set with glucosamine-6-phosphate [1] is below 1e-05 s⁻¹. Moreover, the “self-cleavage kobs at 2500 uM GlcN6P” value with glucosamine-6-phosphate [3] is below 1e-05 s⁻¹.
As to C10G G41C U56G C67A, in the data set with glucosamine-6-phosphate [1], the “self-cleavage kobs at 640 uM GlcN6P” value is below 1e-05 s⁻¹. For the same variant, in the data set with glucosamine-6-phosphate [3], the “self-cleavage kobs at 2500 uM GlcN6P” value was below 1e-05 s⁻¹.
As to C11A A36U U56A C68G C70A, in the data set with glucosamine-6-phosphate [1], the “self-cleavage kobs at 640 uM GlcN6P” value came out at 0.000823 ± 0.0003 s⁻¹. For the same variant, the “self-cleavage kobs at 160 uM GlcN6P” value with glucosamine-6-phosphate [2] came out at 6.51e-05 ± 2.8e-05 s⁻¹. In addition, the “self-cleavage kobs at 10000 uM GlcN6P” value with glucosamine-6-phosphate [4] was found to be 4.16e-05 ± 1.8e-05 s⁻¹.
For A12U A14C G40C G63U, the “self-cleavage kobs at 640 uM GlcN6P” value with glucosamine-6-phosphate [1] is below 1e-05 s⁻¹.
For C11G G32U G37C G38U, the “self-cleavage kobs at 640 uM GlcN6P” value with glucosamine-6-phosphate [1] is below 1e-05 s⁻¹. For the same variant, the “self-cleavage kobs at 2500 uM GlcN6P” value with glucosamine-6-phosphate [3] was below 1e-05 s⁻¹. For the same variant, in the data set with glucosamine-6-phosphate [4], the “self-cleavage kobs at 10000 uM GlcN6P” value was below 1e-05 s⁻¹.
On to C11U U49A G62U, for which the “self-cleavage kobs at 640 uM GlcN6P” value in the data set with glucosamine-6-phosphate [1] was below 1e-05 s⁻¹. Also, the “self-cleavage kobs at 160 uM GlcN6P” value with glucosamine-6-phosphate [2] is below 1e-05 s⁻¹.
Take C10U A15C G32A G38U G40U C67A: the “self-cleavage kobs at 640 uM GlcN6P” value with glucosamine-6-phosphate [1] is below 1e-05 s⁻¹.
For A12G G59C G63C C67A, the “self-cleavage kobs at 640 uM GlcN6P” value with glucosamine-6-phosphate [1] was below 1e-05 s⁻¹. Also, the “self-cleavage kobs at 160 uM GlcN6P” value in the data set with glucosamine-6-phosphate [2] is below 1e-05 s⁻¹. Further, the “self-cleavage kobs at 2500 uM GlcN6P” value with glucosamine-6-phosphate [3] was below 1e-05 s⁻¹.
On to C11A A12U A36C A48C G60U G62A, for which, in the data set with glucosamine-6-phosphate [1], the “self-cleavage kobs at 640 uM GlcN6P” value is below 1e-05 s⁻¹. Also, in the data set with glucosamine-6-phosphate [3], the “self-cleavage kobs at 2500 uM GlcN6P” value is below 1e-05 s⁻¹.
Take A12U A15U C68G: in the data set with glucosamine-6-phosphate [1], the “self-cleavage kobs at 640 uM GlcN6P” value is 8.06e-05 ± 2.7e-05 s⁻¹.
For C10G U46A, the “self-cleavage kobs at 640 uM GlcN6P” value in the data set with glucosamine-6-phosphate [1] was below 1e-05 s⁻¹. In the data set with glucosamine-6-phosphate [3], the “self-cleavage kobs at 2500 uM GlcN6P” value was below 1e-05 s⁻¹.
Regarding C11U G40A, in the data set with glucosamine-6-phosphate [1], the “self-cleavage kobs at 640 uM GlcN6P” value was 8.42e-05 ± 2.2e-05 s⁻¹.
Take C10U G32U C68U: in the data set with glucosamine-6-phosphate [1], the “self-cleavage kobs at 640 uM GlcN6P” value is below 1e-05 s⁻¹.
As to G13A A15G G59C G66A, the “self-cleavage kobs at 640 uM GlcN6P” value with glucosamine-6-phosphate [1] was below 1e-05 s⁻¹. Moreover, the “self-cleavage kobs at 160 uM GlcN6P” value in the data set with glucosamine-6-phosphate [2] was below 1e-05 s⁻¹.
Consider A12C G40A G51U A53U, for which, in the data set with glucosamine-6-phosphate [1], the “self-cleavage kobs at 640 uM GlcN6P” value is below 1e-05 s⁻¹. In the data set with glucosamine-6-phosphate [3], the “self-cleavage kobs at 2500 uM GlcN6P” value is below 1e-05 s⁻¹.
Take C10G A53U U57A: the “self-cleavage kobs at 640 uM GlcN6P” value in the data set with glucosamine-6-phosphate [1] is below 1e-05 s⁻¹.
On the same count and under the same terms, to C11A G62U U65G belongs below 1e-05 s⁻¹; to G13A G29U G62A C70U, below 1e-05 s⁻¹.
In the case of C11A G29U G35U, in the data set with glucosamine-6-phosphate [1], the “self-cleavage kobs at 640 uM GlcN6P” value was below 1e-05 s⁻¹. In addition, the “self-cleavage kobs at 160 uM GlcN6P” value in the data set with glucosamine-6-phosphate [2] is below 1e-05 s⁻¹.
Turning to C11G G35C G37U G43U U46G, in the data set with glucosamine-6-phosphate [1], the “self-cleavage kobs at 640 uM GlcN6P” value is below 1e-05 s⁻¹. Moreover, in the data set with glucosamine-6-phosphate [2], the “self-cleavage kobs at 160 uM GlcN6P” value was below 1e-05 s⁻¹.
Consider C11A G40U U56C A64C C67G, for which the “self-cleavage kobs at 640 uM GlcN6P” value in the data set with glucosamine-6-phosphate [1] was below 1e-05 s⁻¹.
Same read-out and setting: to C11U U30A A33U G63C C70G belongs below 1e-05 s⁻¹.
Take C11U G13C U57C: the “self-cleavage kobs at 640 uM GlcN6P” value with glucosamine-6-phosphate [1] is below 1e-05 s⁻¹. Further, the “self-cleavage kobs at 160 uM GlcN6P” value in the data set with glucosamine-6-phosphate [2] was below 1e-05 s⁻¹. The “self-cleavage kobs at 2500 uM GlcN6P” value with glucosamine-6-phosphate [3] is below 1e-05 s⁻¹.
Regarding C10G U57A, the “self-cleavage kobs at 640 uM GlcN6P” value in the data set with glucosamine-6-phosphate [1] was below 1e-05 s⁻¹. Also, in the data set with glucosamine-6-phosphate [4], the “self-cleavage kobs at 10000 uM GlcN6P” value is below 1e-05 s⁻¹.
Take A12C A14G U31A G35U G38U A39U A48C: the “self-cleavage kobs at 640 uM GlcN6P” value with glucosamine-6-phosphate [1] is below 1e-05 s⁻¹.
With A12U A15C C71A, in the data set with glucosamine-6-phosphate [1], the “self-cleavage kobs at 640 uM GlcN6P” value worked out at 0.000661 ± 0.00015 s⁻¹. For the same variant, the “self-cleavage kobs at 2500 uM GlcN6P” value in the data set with glucosamine-6-phosphate [3] came out at 0.0015 ± 0.00053 s⁻¹.
Consider C11A G32U G60A, for which the “self-cleavage kobs at 640 uM GlcN6P” value with glucosamine-6-phosphate [1] is below 1e-05 s⁻¹. Besides, the “self-cleavage kobs at 2500 uM GlcN6P” value with glucosamine-6-phosphate [3] is below 1e-05 s⁻¹.
G13A G29U A48G: in the data set with glucosamine-6-phosphate [1], the “self-cleavage kobs at 640 uM GlcN6P” value was below 1e-05 s⁻¹. The “self-cleavage kobs at 2500 uM GlcN6P” value in the data set with glucosamine-6-phosphate [3] is below 1e-05 s⁻¹.
Consider A12C A33U U65C, for which, in the data set with glucosamine-6-phosphate [1], the “self-cleavage kobs at 640 uM GlcN6P” value was below 1e-05 s⁻¹. For the same variant, the “self-cleavage kobs at 160 uM GlcN6P” value with glucosamine-6-phosphate [2] is below 1e-05 s⁻¹.
